# Experimental data taken from PubChem BioAssay AID504444 (National Center for Advancing Translational Sciences (NCATS), 2011).
# Screen size: about 360,000 compounds; about 7,500 (2.1%) were called active. Roughly 20% stayed inconclusive and do not appear here. Calls follow the shape of the dose curve; as a rule, active = well fitted inhibition curve with a large enough effect; inconclusive = small, poorly fitted or top-dose-only effect, or effect the other way; inactive = flat fitted curve, though single readings scatter. Only a part is listed here, and it is no random draw. A structure can be active in one record and inactive in another.
# Assay: Nrf2 qHTS screen for inhibitors; also: nearly all actives have a fitted effect of over 60% in size
# Conditions: A549 ARE-Fluc reporter, luciferase luminescence, 18-24 h; series mostly up to 46 µM; activity change, negative = inhibition: at the top concentration
# Source text: NIH Molecular Libraries Probe Production Network [MLPCN]
# NIH Chemical Genomics Center [NCGC]
# Assay Provider: Shyam Biswal, Johns Hopkins University
# Nrf2 is a transcription factor that maintains cellular redox homoestasis and protects cells from xenobiotics. Nrf2 binds to the antioxidant response element (ARE) to induce gene expression of a broad spectrum of genes that encode for antioxidants. […] Finding a small molecule that act as an inhibitor of Nrf2 function would represent a novel therapeutic target that could lead to improvement in survival of patients undergoing chemo- and/or radio- therapy.
# This is the Nrf2 activity measured in the luminescent read.
# 1. Shibata, T., et al., Genetic Alteration of Keap1 Confers Constitutive Nrf2 Activation and Resistance to Chemotherapy in Gallbladder Cancer. Gastroenterology, 2008.
# 2. Sjoblom, T., et al., The consensus coding sequences of human breast and colorectal cancers. Science, 2006. 314(5797): p. 268-74.
# NCGC Assay Protocol Summary:
# A concentration-response assay was performed with A549 ARE_Fluc cells which are suspended in 5% FBS OPTI-MEM. Five uL were dispensed into 1536-well white TC-treated plate using the Kalypsys dispenser to achieve a density of 5000 cells/well in all columns except column 1. The plate is incubated at 37deg C at 5% CO2 for 2 hours before 23 nL of compounds are added with the Kalypsys pin tool equipped with a 1,536-pin array containing 10-nL slotted pins (FP1S10, 0.457-mm diameter, 50.8 mm long; V&P Scientific). The control compounds Budesonide and Staurosporine are both added at a concentration of 2mM and Budesonide is also added as a 1:10 titration, starting at 200uM, to achieve dose-response. After an 18-24 hour incubation at 37deg C at 5% CO2, 5ul of medium is added to column 1. Afterwards 1ul of 5x of CellTiter-Fluor (Promega) is added to every well. The plate is then incubated at 37deg C at 5% CO2 for 30 minutes before they are read on the ViewLux (Perkin Elmer) for a fluorescent read Ex=405(10)/Em=525(10) for a 3 second exposure, 2x binning, and high gain. Then 3 uL of 3x BugLite is dispensed into all wells and the plate is incubated at ambient room temperature for 15 minutes. Afterwards another ViewLux read is performed using the clear filter to get a luminescent read with the settings of 40 second exposure, 2x binning, and high gain. Cytotoxicity is assessed through the first fluorescent read and then biochemical activity against Nrf2 is measured in the luminescent read.
# % is scaled to controls: 0 for no effect and ±100 for the full control effect; potency is read from the fitted curve at half-maximal effect.
Compound,"activity change, negative = inhibition",Potency
CCN(CCCNC(=O)Cn1ncc2c([nH]c3ccc(C)cc32)c1=O)Cc1ccccc1,inactive: 11.4%,
CCOC(=O)[C@@H]1[C@H]2COc3ccc(Br)cc3[C@@H]2N2C(=O)N(c3ccc(OC)cc3)C(=O)[C@]12C,inactive: 4.95%,
C=CC[C@H](CC(=O)N(CCO)Cc1ccccc1)C(=O)NCCOC(=O)[C@@H](CC=C)CC(=O)OC(C)(C)C,inactive: 13.2%,
C#CCNC(=O)C1=C[C@H](c2csc3ccccc23)C[C@H](OCc2ccc(CO)cc2)O1,inactive: -1.33%,
O=S(=O)(c1ccccc1)c1nc(-c2cccc(Cl)c2)oc1N1CCOCC1,inactive: -12%,
Cc1ccccc1-c1cc(C(=O)NCc2ccc(OC(F)(F)F)cc2)n(CC2CC(c3cccnc3)=NO2)n1 (stereo not drawn),,active: 20.6 µM
Cn1c(=O)c(=O)n(C)c2cc(S(=O)(=O)CCC(=O)Nc3ccc(F)cc3)ccc21,inactive: 2.45%,
CCOc1ccc(-c2nnc(N3CCCCC3)c3ccccc23)cc1,,active: 25.9 µM
Cc1nn(-c2ccc(N3CCOCC3)nn2)c(C)c1CCC(=O)NCc1ccc(F)cc1,inactive: 5.68%,
CCCCN(CC)CCCNC(=O)c1cc2c(=O)[nH]c3ccccc3c2s1,inactive: 12.9%,
CS(=O)(=O)c1ccc(CNC(=O)C2(C(F)(F)F)C/C(=C\Cc3ccccc3)CCCO2)cc1 (stereo not drawn),inactive: 1.98%,
C[C@@H]1CC[C@@]2(O[C@H](CCO)C[C@H](O)[C@H]2O)O1,inactive: -13%,
COC(C[C@H]1O[C@H]1[C@@H](O)[C@H](C)OCc1ccccc1)OC,inactive: 5.3%,
Oc1ccc(N=Nc2ccc3ccccc3c2)cc1,,active: 2.59 µM
COc1cc(OC)cc(C(=O)N[C@H](C(=O)Nc2nc(-c3ccc(OC)c(OC)c3)cs2)C(C)C)c1,,active: 7.31 µM
Cc1cc2c(cc1S(=O)(=O)Nc1ccc(C(C)C)cc1)OCCN2C,,active: 13 µM
O=C1CC[C@@H](C(=O)O)N1,inactive: 4.38%,
C=CC[C@@H](CC(=O)N(CCO)Cc1ccccc1)C(=O)N[C@H](COC(=O)[C@@H](CC=C)CC(=O)OC(C)(C)C)Cc1ccccc1,inactive: 1.96%,
COc1ccc(C2/C=C\CN(C(=O)CC(C)(C)C)CC(=O)N2Cc2ccc(F)cc2)cc1 (stereo not drawn),inactive: -0.452%,
Cc1ccc(Cl)cc1N1CCN(S(=O)(=O)c2ccc3c(c2)CC(=O)N3C)CC1,inactive: -6.94%,
CCOC(=O)C1CCCN(S(=O)(=O)c2ccc3c(c2)N(C)C(=O)CC(=O)N3C)C1 (stereo not drawn),inactive: -5.37%,
C[C@H]1NC(=O)[C@]2(C)[C@@H](c3ccccc3)[C@H]3COc4ccccc4[C@@H]3N2C1=O,inactive: 9.26%,

Compound,"activity change, negative = inhibition",Potency
C=CCC[C@@H](Cc1ccc(F)cc1)C(=O)OC[C@H](C)NC(=O)[C@@H](CC=C)CC(=O)N(CCO)Cc1ccccc1,inactive: -23.9%,
CCC(=O)N1c2ccc(S(=O)(=O)N3CCN(c4ccccc4Cl)CC3)cc2CC1C (stereo not drawn),inactive: 0.848%,
Cc1cccc(C)c1Nc1c(-c2ccccc2O)nc2ncccn12,inactive: 3.62%,
O=C(/C=C/c1ccccc1)Nc1nc(-c2ccncc2)cs1,,active: 13 µM
O=C(c1ccc(Cl)cc1)N1CCN(c2ccc([N+](=O)[O-])c(NCc3cccnc3)c2)CC1,,active: 25.9 µM
CCn1c(SCC(=O)N2CCN(c3ccc(Cl)cc3)CC2)nc2ccccc2c1=O,inactive: 12.1%,
C[C@]12C=CC(=O)C=C1CC[C@@H]1[C@@H]2[C@@H](O)C[C@@]2(C)[C@H]1CC[C@]2(O)C(=O)CO,,active: 0.058 µM
CN1CCN(C(=O)/C=C\c2ccc(Cl)cc2)CC1,inactive: 3.36%,
CCc1nn(CCCC(=O)NCc2ccc(C)cc2)c(=O)c2cc3occc3n12,inactive: -14.8%,
CCOC(=O)C1CCCN(S(=O)(=O)c2cc(Br)cc3c2N(C(C)=O)CC3)C1 (stereo not drawn),inactive: 1.94% [at 9.27 µM],
O=C(CCCN1C(=O)/C(=C/c2ccccc2)SC1=S)Nc1ccc(O)cc1,inactive: 19.4%,
O=C1[C@H](Cc2ccccc2)NCCCC[C@@H](c2ccc(Cl)cc2)N1Cc1ccccc1,inactive: 10.8%,
CC(=O)c1cccc(NC(=O)c2ccc3c(c2)CCN3S(=O)(=O)c2ccccc2)c1,inactive: 4.6%,
CCN1C(=O)[C@@H]2[C@@H](c3ccc(-c4ccc(Cl)c(Cl)c4)cc3)N3CCCC[C@@]3(C(=O)OC)[C@@H]2C1=O,inactive: -14.7%,
O=c1c2ccccc2nc(SCc2nc3ccccc3s2)n1Cc1ccco1,,active: 4.61 µM
Cc1ccc(NC(=O)n2ncc3c(C)cccc32)c(C)c1,inactive: -7.21%,
CC(=O)c1c(N2CCN(Cc3ccccc3)CC2)nc(=S)n(Cc2ccccc2)c1C,,active: 20.6 µM
CCN(CC)CCNC(=O)c1ccc(NC(C)=O)cc1,inactive: 5.42%,
CCOC(=O)C1CCCN(C(=O)Cn2ncc3c([nH]c4ccccc43)c2=O)C1 (stereo not drawn),inactive: -13.5%,
Cc1ccc(NS(=O)(=O)c2ccc3c(c2)CCC(=O)N3)cc1C,inactive: -26.2%,
O=C1SC(SC(=Nc2ccccc2)Nc2ccccc2)C(=O)N1c1ccccc1 (stereo not drawn),inactive: 35.9%,
